# Data reported in PubChem BioAssay AID624417 (National Center for Advancing Translational Sciences (NCATS), 2012).
# Screen size: about 410,000 compounds; about 6,400 (1.6%) were called active. Inconclusive means that the source gave no clear call. Such entries were picked first, then a sample of the others. The call rests on the fitted dose curve; in most records, active means well fitted inhibition curve with a large enough effect; inconclusive means small, poorly fitted or top-dose-only effect; inactive means no such curve, though single readings can be large or run the other way. No potency is given beside an inconclusive call; the fits are too rough.
# Target: Glucagon-like peptide 1 receptor (Homo sapiens) (UniProt P43220)
# Assay: qHTS of GLP-1 Receptor Inverse Agonists (Inhibition Mode); further: nearly all actives have a fitted effect of over 55% in size
# Settings: HEK293 GLP-1R CRE-luciferase, luminescence, 24 h, GLP-1R form is constitutively active; activity change, negative = inhibition: at 38.3 µM (top of the series) unless noted
# In short: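 HEK293 cells stably co-expressing a cAMP-responsive luciferase reporter and constitutively active GLP-1R were seeded, incubated 12 h, then exposed to compounds for 24 h at 37 C. Luminescence was read 12 min after detection reagent; inverse agonists lower signal.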
# On the % scale 0 is the no-effect control and ±100 the full control effect; potency means the concentration at half of the fitted maximal effect; tags describe the fitted curve by direction and shape.
# UniProt P43220, sequence (P43220 whole entry, looked up): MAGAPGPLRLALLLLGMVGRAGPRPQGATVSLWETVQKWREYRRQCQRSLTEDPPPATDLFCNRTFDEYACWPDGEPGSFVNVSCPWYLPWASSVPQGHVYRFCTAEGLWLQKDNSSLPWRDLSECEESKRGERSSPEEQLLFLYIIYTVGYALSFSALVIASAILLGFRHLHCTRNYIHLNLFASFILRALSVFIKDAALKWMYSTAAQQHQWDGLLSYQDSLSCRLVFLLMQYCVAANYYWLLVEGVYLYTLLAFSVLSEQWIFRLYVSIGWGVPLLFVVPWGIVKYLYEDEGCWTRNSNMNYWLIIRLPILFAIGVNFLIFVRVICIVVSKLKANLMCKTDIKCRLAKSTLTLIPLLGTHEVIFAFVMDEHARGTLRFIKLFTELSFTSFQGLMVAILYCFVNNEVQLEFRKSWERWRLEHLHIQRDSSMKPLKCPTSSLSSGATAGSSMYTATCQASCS
Compound,Potency,"activity change, negative = inhibition"
COc1ccc(Cl)cc1NC(=O)CN(C)C(=O)c1sccc1-c1ccccc1,"inconclusive [inhibitor, partial curve, poor fit]",
COc1ccc(S(=O)(=O)n2nc(-n3c(C)ccc3C)c3c(F)cccc32)cc1OC,active: 10 µM,
CCc1nc2ccc(C(=O)NCCc3ccccn3)cn2c1N(C)CCC(C)C,"inconclusive [inhibitor, partial curve]",
CCN(CC)C(=O)CN1C(=O)C2(OCC(C)(C)CO2)c2ccccc21,,inactive: 2.96%
CCC(C)NC(=O)CCCCCn1c(=O)[nH]c2cc(OC)c(OC)cc2c1=O (stereo not given),,inactive: 0%
CC(C)=CCCC(C)CN1CCC(N2CCC(C(=O)N3CCCC3)CC2)CC1 (stereo not given),"inconclusive [inhibitor, partial curve]",
NS(=O)(=O)c1ccc(NC(=S)N2CCN(c3ccccc3Cl)CC2)cc1,"inconclusive [inhibitor, single point]",
CC1=C(c2ccc(C)c(C)c2)S(=O)(=O)N=C1N1CCC(C(=O)NCCc2ccc(Cl)cc2)CC1,"inconclusive [inhibitor, partial curve, poor fit]",
CCOc1ccc(NC(=O)N2CC=C(c3c[nH]c4ccccc34)CC2)cc1,"inconclusive [inhibitor, partial curve]",
Cc1ccc(C)c(N(C)S(=O)(=O)c2cccc3nsnc23)c1,"inconclusive [inhibitor, partial curve]",
CCCCCOP(=O)(OCCCCC)C1(NS(=O)(=O)c2ccccc2)C=CC(=O)c2ccccc21 (stereo not given),"inconclusive [inhibitor, partial curve, poor fit]",
CCCN1C(=O)C(Cc2nc3ccccc3c(=O)n2-c2ccccc2)c2ccccc21 (stereo not given),"inconclusive [inhibitor, partial curve]",
Cc1cc(C)c(NC(=O)CN(C)CC(=O)Nc2cccc(S(=O)(=O)N(C)c3ccccc3)c2)c(C)c1,"inconclusive [inhibitor, partial curve, poor fit]",
CC(C)CC(=O)NC(=S)NCCc1ccccc1,"inconclusive [inhibitor, single point]",
Cc1cc(C)cc(NC(=O)c2ccc(CSc3nnc(C)s3)cc2)c1,"inconclusive [inhibitor, single point]",
CCOc1ccc(CN(C(=O)c2oc3cc(C)ccc3c2C)C2CCS(=O)(=O)C2)cc1 (stereo not given),"inconclusive [inhibitor, single point]",
O=C(N/C(=C/c1ccc([N+](=O)[O-])cc1)C(=O)N1CCCC1)c1ccccc1,,inactive: 0.164%
CC(C)Cc1nnc(NC(=O)CCC(=O)N2CCN(c3ccccc3F)CC2)s1,"inconclusive [inhibitor, single point]",
CN(Cc1ccc([N+](=O)[O-])cc1)c1ccccc1,"inconclusive [inhibitor, single point]",
Cc1oc(-c2cccc(Cl)c2)nc1CN1CCC(C(=O)NCCCN2CC(C)CC(C)C2)CC1 (stereo not given),"inconclusive [inhibitor, full curve, poor fit]",

Compound,Potency,"activity change, negative = inhibition"
Cc1cc(C)n(-c2nc(NCCCO)c3c4c(sc3n2)CCCC4)n1,"inconclusive [inhibitor, full curve, poor fit]",
COc1ccccc1NC(=O)CCCCCN1C(=O)c2cccc([N+](=O)[O-])c2C1=O,,inactive: 7.47%
CC(=O)Nc1cc(-c2ccc(CO)cc2)cn2c(-c3cccc(C(F)(F)F)c3)cnc12,"inconclusive [inhibitor, single point]",
O=C(NCc1ccc(F)cc1)Nc1cccc(Cl)c1,"inconclusive [inhibitor, partial curve, poor fit]",
COc1ccc(NC(=O)c2ccc3ccccc3c2)cc1,,inactive: 7.81%
CN(C)CCNC(=O)c1c(NC(=O)c2ccccc2)sc2c1CCCC2,"inconclusive [inhibitor, partial curve, poor fit]",
COC(=O)c1ccc(NC(=O)C23CCC(C)(C(=O)O2)C3(C)C)cc1 (stereo not given),"inconclusive [inhibitor, single point]",
O=C(O)c1ccccc1NC(c1ccccc1)c1ccc2cccnc2c1O (stereo not given),"inconclusive [inhibitor, partial curve, poor fit]",
O=C(NCC(c1ccco1)N1CCc2ccccc2C1)C(=O)Nc1ccc(F)cc1F (stereo not given),"inconclusive [inhibitor, single point]",
O=C(c1ccc2c(c1)N(Cc1cccc(Cl)c1)C(=O)c1ccccc1S2(=O)=O)N1CCCCC1,"inconclusive [inhibitor, single point]",
Cc1ccc(OCCOC(=O)c2cccc(S(=O)(=O)N3CC(C)OC(C)C3)c2)cc1 (stereo not given),"inconclusive [inhibitor, single point]",
S=C(Nc1ccc(Cl)cc1)NC1CCCCC1,active: 10 µM,
CCc1ccc(N2C(=O)CN(Cc3sccc3C)C2=S)cc1,"inconclusive [inhibitor, full curve, poor fit]",
COC(=O)c1c(-c2ccc(S(C)(=O)=O)cc2)sc2cc(OC)ccc12,,inactive: 20.3%
COc1ccccc1CNc1ccc(-c2nc(C)no2)cc1[N+](=O)[O-],"inconclusive [inhibitor, full curve, poor fit]",
Cc1ccc(NS(=O)(=O)Cc2ccccc2)cc1Cl,"inconclusive [inhibitor, single point]",
Cc1cccc(N2CCN(C(=O)c3ccc4c(c3)CCN4S(C)(=O)=O)CC2)c1C,"inconclusive [inhibitor, partial curve, poor fit]",
COc1ccc(-n2c(SCC(=O)N/N=C(\C)c3cccnc3)nc3ccccc3c2=O)cc1,,inactive: 4.87%
Cc1ccc(NC(=O)C2=C(O)c3ccccc3N(C)S2(=O)=O)cc1,"inconclusive [inhibitor, partial curve]",
CC(=O)Nc1nonc1-c1nnc(SCC(=O)Nc2cc(C)cc(C)c2)n1C,,inactive: 28.5%
